Measurements reported in patent US20070037883A1, “Therapeutic compositions” (priority 2003, published 2007).
Each block holds one compound with its values, some of them ahead of it.

Target: T1, Nox4-containing NADPH oxidase in cultured mouse VSMCs (Mus musculus, UniProt Q9JHI8)
T1 sequence (Q9JHI8 1-578): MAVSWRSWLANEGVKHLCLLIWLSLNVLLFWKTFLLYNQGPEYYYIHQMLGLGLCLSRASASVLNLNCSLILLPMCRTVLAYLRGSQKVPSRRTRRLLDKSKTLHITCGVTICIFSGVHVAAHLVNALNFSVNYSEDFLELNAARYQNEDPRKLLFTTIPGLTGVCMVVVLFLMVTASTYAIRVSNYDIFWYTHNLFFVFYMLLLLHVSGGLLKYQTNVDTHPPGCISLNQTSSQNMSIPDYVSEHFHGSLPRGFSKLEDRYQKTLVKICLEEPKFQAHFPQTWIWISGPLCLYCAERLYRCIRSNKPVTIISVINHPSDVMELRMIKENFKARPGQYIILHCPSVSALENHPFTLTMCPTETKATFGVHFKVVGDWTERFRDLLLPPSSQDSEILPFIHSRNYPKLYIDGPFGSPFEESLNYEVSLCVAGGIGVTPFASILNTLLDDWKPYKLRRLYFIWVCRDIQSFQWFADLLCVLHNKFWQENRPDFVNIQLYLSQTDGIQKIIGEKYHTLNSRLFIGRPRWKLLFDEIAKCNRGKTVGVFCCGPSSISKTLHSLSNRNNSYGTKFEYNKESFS
T1 sequence (Q61462 1-192 partner): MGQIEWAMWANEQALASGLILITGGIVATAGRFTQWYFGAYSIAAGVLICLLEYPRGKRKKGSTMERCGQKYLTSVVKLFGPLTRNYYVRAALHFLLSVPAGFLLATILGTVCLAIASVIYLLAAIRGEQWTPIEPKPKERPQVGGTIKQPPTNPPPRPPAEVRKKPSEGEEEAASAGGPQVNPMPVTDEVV
Assay: NADPH-driven superoxide production in cultured mouse VSMCs, lucigenin-enhanced chemiluminescence
Format: cell-based
Settings: for reduction in NADPH-driven superoxide production, second series vs mismatch and scrambled: 500 nmol/L oligonucleotide, 24 h, 100 μmol/L NADPH 45 mins, FIG. 8

Compound: 1-amino-4[[4[[4-chloro-6-[[n-sulfophenyl]amino]-1,3,5-triazin-2-yl]amino]-3-sulfophenyl]amino]-9,10-dihydro-9,10-dioxo-2-anthracene-sulfonic acid wherein n is 3 or 4 [Reactive blue-2]
inhibition of the Nox4-containing NADPH oxidase in cultured mouse VSMCs (in words) (FIG. 2A, FIG. 5): powerful inhibitors

Compound: c1ccc2c(c1)[I+]c1ccccc1-2 [DPI, diphenyleneiodonium]
inhibition of the Nox4-containing NADPH oxidase in cultured mouse VSMCs (in words) (FIG. 2A, FIG. 5): powerful inhibitor | IC50 (mouse VSMCs, FIG. 5, read-out: IC50, concentrations at which DPI inhibits NADPH oxidase): 1 nM

Compound: +13/+33 mismatch: mismatch control oligonucleotide TAGGCCAGCAAGCTCCTACA [SEQ ID NO:18], differs in three base positions (chemistry not given here)
reduction in NADPH-driven superoxide production, second series vs mismatch and scrambled: neither the mismatch nor the scrambled sequence had any effect

Compound: +13/+33 scrambled: scrambled control oligonucleotide CGTCACGCTCAGCTCACCGT [SEQ ID NO:19], same base composition in random order (chemistry not given here)
reduction in NADPH-driven superoxide production, second series vs mismatch and scrambled: neither the mismatch nor the scrambled sequence had any effect

Other lines, results leading:

inhibition of the Nox4-containing NADPH oxidase in cultured mouse VSMCs (in words) (FIG. 2A, FIG. 5): powerful inhibitors
Compound: Cc1nc(N=Nc2ccc(S(=O)(=O)O)cc2S(=O)(=O)O)c(COP(=O)(O)O)c(C=O)c1O [PPADS, 4-[[-formyl-5-hydroxy-6-methyl-3-[(phos-phonooxy)methyl]-2-pyridinyl]azo]-1,3-benzenedisulfonic acid]

effect on NADPH-driven superoxide production after 45 mins (45 mins, 100 μM NADPH, FIG. 5C): no effect | inhibition of NADPH-driven superoxide production after 24 h (24 h incubation, 100 μM NADPH, FIG. 5C): ~50% | inhibition of the Nox4-containing NADPH oxidase in cultured mouse VSMCs (in words) (FIG. 2A, FIG. 5): inhibits
Compound: COc1cc(C(C)=O)ccc1O [apocynin]

inhibition of the Nox4-containing NADPH oxidase in cultured mouse VSMCs (in words) (FIG. 2A, FIG. 5): powerful inhibitors | NADPH-driven superoxide production in VSMCs (suramin 100 μM for 45 minutes, FIG. 2A): abolish | inhibition of 100 μM NADPH-driven activity of Nox4-containing NADPH-oxidase in VSMC (suramin ≦100 μM, 100 μM NADPH, FIG. 2a): fully inhibits
Compound: Cc1ccc(C(=O)Nc2ccc(S(=O)(=O)O)c3cc(S(=O)(=O)O)cc(S(=O)(=O)O)c23)cc1NC(=O)c1cccc(NC(=O)Nc2cccc(C(=O)Nc3cc(C(=O)Nc4ccc(S(=O)(=O)O)c5cc(S(=O)(=O)O)cc(S(=O)(=O)O)c45)ccc3C)c2)c1 [suramin]

EC50 (45 mins incubation with NADPH, FIG. 5A, read-out: EC50, concentration-dependent increase in superoxide production): 5000 ± 600 nM
Compound: NADPH
